The molecules below were run against PRMT5/MEP50 Complex (Homo sapiens (Human), UniProt O14744) (assay: PRMT5 inhibition based on TR-FRET assay). Conditions: 32 nM PRMT5:MEP50, 50 nM Histone-H4 peptide, 1 μM SAM.
Format: biochemical
Text: PRMT5 Inhibition Based on TR-FRET Assay:
Protein arginine methyltransferase 5 (PRMT5) is a type II arginine methyltransferase that catalyze mono- and symmetric demethylation on arginine residues of histone or non-histone proteins in presence of S-adenosylmethionine (AdoMet or SAM) a cofactor responsible for donating the methyl group. PRMT5 is reported to be overexpressed in several human cancers. To identify compounds that inhibit the PRMT5 and decrease its activity, a TR-FRET based assay has been established. Time-resolved fluorescence resonance energy transfer (TR-FRET) HTS assays are homogeneous proximity assays where the interaction of two dye-labeled binding partners is detected by the energy transfer between a donor and an acceptor dye and the subsequent light emission by the acceptor dye. PRMT5 catalyzes Histone H4 peptide which is biotin tagged to the Lysine amino acid at carboxyl end, in presence of S-adenosyl-1-methionine (SAM) to methylate the peptide. The antibody specific to mono methylated H4 peptide (H4R3) with Ig conjugate binds to the methylated peptide, indirectly binding to the Europium lanthanide. SureLight Allophycocyanin-Streptavidin binds to the biotin tag of the peptide, therefore accepting the energy transferred from the Europium lanthanide. This energy transfer between Europium to SureLight Allophycocyanin is a direct measure of the activity/inhibition of the PRMT5 enzyme.
Assay buffer: 20 mM BICINE (pH 7.6), 25 mM NaCl, 2 mM DTT, 0.01% Tween-20 and 0.01% BSA.
The compound dilutions were prepared as 7.5% DMSO stock solutions in assay buffer. To 2 μL (7.5×) of test compound, 5 μL of PRMT5 enzyme prepared in assay buffer (Final concentration of 32 nM in 15 μL reaction volume) was added and allowed for 30 minutes pre-incubation time in a white polystyrene 384-well plate at room temperature. […] The plates were then read on Victor-3 with Excitation at 340 nm and Emissions collected at 615 and 665 nm in TR-FRET protocol. […]

Sequence of UniProt O14744 (O14744 whole entry): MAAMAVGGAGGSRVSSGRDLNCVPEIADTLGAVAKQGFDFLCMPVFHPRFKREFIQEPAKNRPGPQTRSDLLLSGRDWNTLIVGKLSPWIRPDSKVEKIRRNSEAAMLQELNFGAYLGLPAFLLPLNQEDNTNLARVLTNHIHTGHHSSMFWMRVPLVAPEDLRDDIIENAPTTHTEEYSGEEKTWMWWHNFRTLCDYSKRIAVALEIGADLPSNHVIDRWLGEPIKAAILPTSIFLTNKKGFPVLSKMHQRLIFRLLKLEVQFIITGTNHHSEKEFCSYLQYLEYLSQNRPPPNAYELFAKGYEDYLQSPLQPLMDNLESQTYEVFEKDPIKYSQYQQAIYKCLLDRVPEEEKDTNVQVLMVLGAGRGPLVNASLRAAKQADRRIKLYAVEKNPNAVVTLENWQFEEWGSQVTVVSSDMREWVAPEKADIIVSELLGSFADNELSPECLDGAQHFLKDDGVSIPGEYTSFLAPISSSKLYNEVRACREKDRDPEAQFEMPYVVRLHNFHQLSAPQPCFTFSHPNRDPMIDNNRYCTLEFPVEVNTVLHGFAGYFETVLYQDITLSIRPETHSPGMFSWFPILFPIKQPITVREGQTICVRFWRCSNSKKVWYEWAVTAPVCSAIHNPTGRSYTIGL
Sequence of UniProt O14744 (Q9BQA1 whole entry partner): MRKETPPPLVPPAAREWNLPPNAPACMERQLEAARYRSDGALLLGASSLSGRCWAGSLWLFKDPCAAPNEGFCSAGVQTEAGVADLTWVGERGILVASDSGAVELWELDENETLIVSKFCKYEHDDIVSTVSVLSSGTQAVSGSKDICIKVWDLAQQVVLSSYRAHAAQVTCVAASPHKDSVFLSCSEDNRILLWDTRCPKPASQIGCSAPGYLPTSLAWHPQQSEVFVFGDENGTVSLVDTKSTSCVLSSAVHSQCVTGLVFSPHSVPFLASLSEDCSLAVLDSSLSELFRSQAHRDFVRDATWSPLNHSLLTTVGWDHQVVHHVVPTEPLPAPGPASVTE

| SMILES | IC50 |
| --- | --- |
| O=C(Nc1ccc(CN2CCN(C[C@H](O)CN3CCc4ccccc4C3)C2=O)nc1)C1CCC1 [Example 106, (R)-N-(6-((3-(3-(3,4-dihydroisoquinolin-2(1H)-yl)-2-hydroxypropyl)-2-oxoimidazolidin-1-yl)methyl)pyridin-3-yl)cyclobutanecarboxamide] | 0.07 µM |
| N#Cc1cnc(CN2CCN(C[C@H](O)CN3CCc4ccccc4C3)C2=O)c(C(=O)N2CCCCC2)c1 [Example 102, (R)-6-((3-(3-(3,4-dihydroisoqumolhn-2(1H)-yl)-2-hydroxypropyl)-2-oxoimidazolidin-1-yl)methyl)-5-(piperidine-1-carbonyl)nicotinonitrile] | 5.44 µM |
| CC(=O)N1CCN(C(=O)c2cc(C#N)cnc2CN2CCN(C[C@H](O)CN3CCc4ccccc4C3)C2=O)CC1 [Example 103] | 5.46 µM |

From patent US11365205B2 (Aurigene Discovery Technologies Limited, priority 2018, dated 2022)
